The list shows a part of the results. The list includes weakly bound sequences.
Target: T1, MBP-FoxP3dN (UniProt Q99JB6)
T1 sequence: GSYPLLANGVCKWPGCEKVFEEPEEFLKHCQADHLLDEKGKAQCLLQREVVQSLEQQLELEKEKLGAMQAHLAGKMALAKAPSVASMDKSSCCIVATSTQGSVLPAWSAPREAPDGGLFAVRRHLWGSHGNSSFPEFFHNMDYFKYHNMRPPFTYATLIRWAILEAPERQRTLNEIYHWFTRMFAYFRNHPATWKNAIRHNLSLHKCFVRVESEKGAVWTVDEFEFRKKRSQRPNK
Experiment: PD-seq (MBP pull-down with sequencing)
Conditions: 20 mM Tris-HCl pH 7.5, 100 mM NaCl, 1.5 mM MgCl2, 0.4 uM protein, 0.1 uM dsDNA library, 30 min, room temperature, amylose pull-down; high values mean tight binding; double strand, one strand shown

Sequence | binding signal (RPM ratio (pull-down/input))
GATGATTGTTCTCCCAGCTGATGAATTTGTTAAATCGAGTAAACAAATTTTCCTAATCTTTCTGTTCAAGCGCCATCTAC | 0.587
GATGATTGTTCTCCCAGCTGATGAATTGCCGGAGTCGAGTAAACAAATTTTCCTAATCTTTCTGTTCAAGCGCCATCTAC | 0.341
GATGATTGTTCTCCCAGCTGATGAATTCACCACTTCGAGTAAACAAATTTTCCTAATCTTTCTGTTCAAGCGCCATCTAC | 0.354
GATGATTGTTCTCCCAGCTGATGAATTAGCCCAATCGAGTAAACAAATTTTCCTAATCTTTCTGTTCAAGCGCCATCTAC | 0.282
GATGATTGTTCTCCCAGCTGATGAATTACAGGCCTCGAGTAAACAAATTTTCCTAATCTTTCTGTTCAAGCGCCATCTAC | 0.622
GATGATTGTTCTCCCAGCTGATGAATTTACGCGCTCGAGTAAACAAATTTTCCTAATCTTTCTGTTCAAGCGCCATCTAC | 0.58
GATGATTGTTCTCCCAGCTGATGAATTGTGGAGTTCGAGTAAACAAATTTTCCTAATCTTTCTGTTCAAGCGCCATCTAC | 0.624
GATGATTGTTCTCCCAGCTGATGAATTACATTCTTCGAGTAAACAAATTTTCCTAATCTTTCTGTTCAAGCGCCATCTAC | 0.483
GATGATTGTTCTCCCAGCTGATGAATTTAAATGATCGAGTAAACAAATTTTCCTAATCTTTCTGTTCAAGCGCCATCTAC | 0.382
GATGATTGTTCTCCCAGCTGATGAATTAGGTGTGTCGAGTAAACAAATTTTCCTAATCTTTCTGTTCAAGCGCCATCTAC | 1.89
GATGATTGTTCTCCCAGCTGATGAATTGGTTGGCTCGAGTAAACAAATTTTCCTAATCTTTCTGTTCAAGCGCCATCTAC | 1.78
GATGATTGTTCTCCCAGCTGATGAATTGGGCGGTTCGAGTAAACAAATTTTCCTAATCTTTCTGTTCAAGCGCCATCTAC | 0.556
GATGATTGTTCTCCCAGCTGATGAATTTGACAGCTCGAGTAAACAAATTTTCCTAATCTTTCTGTTCAAGCGCCATCTAC | 0.405
GATGATTGTTCTCCCAGCTGATGAATTTATCATCTCGAGTAAACAAATTTTCCTAATCTTTCTGTTCAAGCGCCATCTAC | 3.42
GATGATTGTTCTCCCAGCTGATGAATTCCGATACTCGAGTAAACAAATTTTCCTAATCTTTCTGTTCAAGCGCCATCTAC | 0.876
GATGATTGTTCTCCCAGCTGATGAATTAAGCCTGTCGAGTAAACAAATTTTCCTAATCTTTCTGTTCAAGCGCCATCTAC | 4.24

Sequence | binding signal (RPM ratio (pull-down/input))
GATGATTGTTCTCCCAGCTGATGAATTCTTTCCGTCGAGTAAACAAATTTTCCTAATCTTTCTGTTCAAGCGCCATCTAC | 0.202
GATGATTGTTCTCCCAGCTGATGAATTATTCGCCTCGAGTAAACAAATTTTCCTAATCTTTCTGTTCAAGCGCCATCTAC | 0.568
GATGATTGTTCTCCCAGCTGATGAATTAGAATACTCGAGTAAACAAATTTTCCTAATCTTTCTGTTCAAGCGCCATCTAC | 0.561
GATGATTGTTCTCCCAGCTGATGAATTCTCTCTGTCGAGTAAACAAATTTTCCTAATCTTTCTGTTCAAGCGCCATCTAC | 0.215
GATGATTGTTCTCCCAGCTGATGAATTCAACACTTCGAGTAAACAAATTTTCCTAATCTTTCTGTTCAAGCGCCATCTAC | 0.469
GATGATTGTTCTCCCAGCTGATGAATTATCCATTTCGAGTAAACAAATTTTCCTAATCTTTCTGTTCAAGCGCCATCTAC | 0.309
GATGATTGTTCTCCCAGCTGATGAATTCGTCAAATCGAGTAAACAAATTTTCCTAATCTTTCTGTTCAAGCGCCATCTAC | 0.211
GATGATTGTTCTCCCAGCTGATGAATTGTCACGTTCGAGTAAACAAATTTTCCTAATCTTTCTGTTCAAGCGCCATCTAC | 0.577
GATGATTGTTCTCCCAGCTGATGAATTATTTCACTCGAGTAAACAAATTTTCCTAATCTTTCTGTTCAAGCGCCATCTAC | 0.389
GATGATTGTTCTCCCAGCTGATGAATTCAAACTCTCGAGTAAACAAATTTTCCTAATCTTTCTGTTCAAGCGCCATCTAC | 0.412
GATGATTGTTCTCCCAGCTGATGAATTCGCTCCATCGAGTAAACAAATTTTCCTAATCTTTCTGTTCAAGCGCCATCTAC | 0.292
GATGATTGTTCTCCCAGCTGATGAATTGTAGCCCTCGAGTAAACAAATTTTCCTAATCTTTCTGTTCAAGCGCCATCTAC | 0.759
GATGATTGTTCTCCCAGCTGATGAATTCGGATCATCGAGTAAACAAATTTTCCTAATCTTTCTGTTCAAGCGCCATCTAC | 0.395
GATGATTGTTCTCCCAGCTGATGAATTCCGCTGGTCGAGTAAACAAATTTTCCTAATCTTTCTGTTCAAGCGCCATCTAC | 0.76
GATGATTGTTCTCCCAGCTGATGAATTATCTGATTCGAGTAAACAAATTTTCCTAATCTTTCTGTTCAAGCGCCATCTAC | 0.321
GATGATTGTTCTCCCAGCTGATGAATTATCCGCTTCGAGTAAACAAATTTTCCTAATCTTTCTGTTCAAGCGCCATCTAC | 0.348

Reference: paper PMC12820563
